Measurements: the supplement of paper PMC11417369
± gives the standard deviation of the averaged measurements. This is one part of the list.

Tested on: PfAP2-G AP2 domain (GST-tagged)
Test: gcPBM binding intensity (ln(normalized median fluorescence intensity)); higher = stronger DNA binding
Procedure, shortened: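 GST-tagged P. falciparum DNA-binding domains produced in E. coli were incubated for 1 h on an Agilent 4 × 180k array of primer-extended double-stranded 36-bp intergenic genomic probes with negative controls. Binding intensity is the highest Masliner-normalised natural-log median intensity across replicate spots of either probe orientation, with bound protein detected by Alexa488 anti-GST antibody at 488 nm.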

| Sequence | gcPBM binding intensity (ln) |
| --- | --- |
| TGTGGCCCTGCGAGGTGGTCATCATGAATACGAAAA [XGTACX_site1526] | 11.1 ± 0.79 |
| TCAAAAATTTATATAGTGCAATATATATATAATGTA | 9.695 ± 0.092 |
| ACCATTTGTACTTACGCACACATAAAATATATATAT [CACACA_site1545] | 11.5 ± 1 |
| TACTATTTTTATAATACACACATATATTTGTGATAT [CACACA_site1775] | 10.04 ± 0.099 |
| TTAAAAAATATATGCGTGCACTAATATTTCATATGC | 10.3 ± 0.28 |
| TGAATTAACAAATAGACACACATATATATATATATA [CACACA_site3195] | 10.1 ± 0.43 |
| TCATACATTTTCCTTGCACACATTTATAATTAATGT [CACACA_site614] | 10.5 ± 0.17 |
| ATATGTGAATAAAAATGTACGTGTTCTTTTTTTTTT [XGTACX_site320] | 11.2 ± 0.61 |
| AACAAAAAAACAAACACACACACACCCATATATATA [CACACA_site3652] | 9.97 ± 0.16 |
| TTGTAATATATAAAAGTGCATATATGGTTCCATATA [GTGCAC_site9544] | 10.3 ± 0.3 |
| TAATTTATTGTACGTGCATGCTATTTTTTATTTTTA [TGCATGCA_site1059] | 11.5 ± 0.77 |
| GTTATAGAAGCATTCACACACACACCGACATACACA [CACACA_site4914] | 10.3 ± 0.43 |
| AATAATTAAATATATTTATAACAGGAAAATATTTAT [XGTACX_negctrl_site175] | 10.2 ± 0.16 |
| ATAAATTATATTCAAGTGCATGTAACTTATTATTAT | 9.92 ± 0.13 |
| ATATATATATAAATATAAATATATATATATATATAT [CACACA_negctrl_site1685] | 9.93 ± 0.87 |
| TTATAAGATTTATGTACACACATATACACCCCTCTA [CACACA_site4562] | 11.5 ± 0.83 |
| TATATATAGAAACACACACACACATATATATATATT [CACACA_site2539] | 10 ± 0.16 |
| AAAAAAATCACATAATATACTTTATTTTATTTTGTA [GTGCAC_negctrl_site562] | 9.605 ± 0.049 |
| ACAAAGAACTATAATACACACAAGAATATATTGGAT [CACACA_site7771] | 10 ± 0.085 |
| AATATATTGCACCATTGGACCTGAATAATTCTTCCA [CACACA_negctrl_site1071] | 10.4 ± 0.41 |
| GTAAGAAACGGACACACACACATATATATATATATA [CACACA_site4593] | 11.2 ± 0.83 |
| ATATATATAATATGATGTACTATTTTGATAAAAAAT [XGTACX_site3975] | 11.2 ± 0.81 |
| TAAATAATCATAGTTCTACACACCTATATTGCAAAA [CACACA_site8190] | 9.975 ± 0.092 |

| Sequence | gcPBM binding intensity (ln) |
| --- | --- |
| AAAAAAAAAAATTCCAGTACACACAATAATACTAAA [XGTACX_site5930] | 11.1 ± 0.69 |
| TACAAAATATGGTAATAAAGTAGTTACATGAATTGG [XGTACX_negctrl_site522] | 10.06 ± 0.042 |
| ATATTTTTTATAAAATGTACTTATTATTAGAATATA [XGTACX_site2460] | 11.2 ± 0.83 |
| ACATATAAGTTATATACACACAATAATATGTAAATA [CACACA_site6766] | 9.98 ± 0.042 |
| AATAAAAACAAACAAAAAAACAAATAAATAAATAAA [CACACA_negctrl_site483] | 9.62 ± 0.099 |
| TAGTAAGAATTACTGTGTACTAAAATATTAAAAAGT [XGTACX_site2578] | 11.6 ± 1.1 |
| AAATAGTCTTCTCTTGCATGTAACAAATATATATAT [TGCATGCA_site428] | 10 ± 0.18 |
| TTTTTTTATAAAAATGAACACACACCGATATATATA [CACACA_site9161] | 10.4 ± 0.35 |
| GTTATAGAAGCATTCACACACACACGGACATACACA [CACACA_site6801] | 11.1 ± 0.68 |
| AATATATACATATGTATGCACTTTTTAATTATTTTT | 10.09 ± 0.099 |
| TATTATAATATATTTGTGCACATAATACCTCCGCTA [GTGCAC_site9570] | 10.5 ± 0.26 |
| TTTTCTCAATTTTGGTGTACTTTTTTCTTAACACAT [XGTACX_site8918] | 11.7 ± 1 |
| TATTTAAAATATTAAATTTGTAAAGTTCGAGGGAAG [GTGCAC_negctrl_site337] | 9.68 ± 0.15 |
| TATACATATGTATGCACACATACATACCCATATAAT [CACACA_site5842] | 10 ± 0.071 |
| CTATATATAAAATATTGTACTTATTTTTATTACATC [XGTACX_site3963] | 11.5 ± 0.88 |
| AAAGGTTTATCTGATACACACATAAGTGATCAGGTT [CACACA_site6233] | 9.88 ± 0.13 |
| TAAATTAAAAAACATAAACTATTGGAAACGCATTGA [CACACA_negctrl_site935] | 10.07 ± 0.078 |
| GAAAAAAAAATATCTTGTACTTACATAACTATTGGT [XGTACX_site5326] | 11.1 ± 0.67 |
| AATGATAATCTATTATGTACACATATATTCTTATGT [XGTACX_site4148] | 11.5 ± 0.88 |
| ACACAATAAACATTATGTACATATAATGTTCTGTGT [XGTACX_site3381] | 11.1 ± 0.66 |
| TAATATATAACGTGCACACACACATTTACGTATGAA [CACACA_site1832] | 10.5 ± 0.26 |
| AGCACCCACCAACACACACACACACCCACCCACCCA [CACACA_site8011] | 10.6 ± 0.2 |
